According to publication PMC4336329 (PLoS ONE, 2015):
Among all 310,000 compounds or so, about 2,200 (0.71%) showed an effect of 50% or more. The effect is printed as a negative number. The list shows a part of the results.

Each compound was assayed against human ether-à-go-go-related gene (hERG) potassium channel (human, UniProt Q12809) (assay: primary screen, population patch clamp on CHO cells stably expressing hERG).
human ether-à-go-go-related gene (hERG) potassium channel, sequence (Q12809 whole entry, looked up): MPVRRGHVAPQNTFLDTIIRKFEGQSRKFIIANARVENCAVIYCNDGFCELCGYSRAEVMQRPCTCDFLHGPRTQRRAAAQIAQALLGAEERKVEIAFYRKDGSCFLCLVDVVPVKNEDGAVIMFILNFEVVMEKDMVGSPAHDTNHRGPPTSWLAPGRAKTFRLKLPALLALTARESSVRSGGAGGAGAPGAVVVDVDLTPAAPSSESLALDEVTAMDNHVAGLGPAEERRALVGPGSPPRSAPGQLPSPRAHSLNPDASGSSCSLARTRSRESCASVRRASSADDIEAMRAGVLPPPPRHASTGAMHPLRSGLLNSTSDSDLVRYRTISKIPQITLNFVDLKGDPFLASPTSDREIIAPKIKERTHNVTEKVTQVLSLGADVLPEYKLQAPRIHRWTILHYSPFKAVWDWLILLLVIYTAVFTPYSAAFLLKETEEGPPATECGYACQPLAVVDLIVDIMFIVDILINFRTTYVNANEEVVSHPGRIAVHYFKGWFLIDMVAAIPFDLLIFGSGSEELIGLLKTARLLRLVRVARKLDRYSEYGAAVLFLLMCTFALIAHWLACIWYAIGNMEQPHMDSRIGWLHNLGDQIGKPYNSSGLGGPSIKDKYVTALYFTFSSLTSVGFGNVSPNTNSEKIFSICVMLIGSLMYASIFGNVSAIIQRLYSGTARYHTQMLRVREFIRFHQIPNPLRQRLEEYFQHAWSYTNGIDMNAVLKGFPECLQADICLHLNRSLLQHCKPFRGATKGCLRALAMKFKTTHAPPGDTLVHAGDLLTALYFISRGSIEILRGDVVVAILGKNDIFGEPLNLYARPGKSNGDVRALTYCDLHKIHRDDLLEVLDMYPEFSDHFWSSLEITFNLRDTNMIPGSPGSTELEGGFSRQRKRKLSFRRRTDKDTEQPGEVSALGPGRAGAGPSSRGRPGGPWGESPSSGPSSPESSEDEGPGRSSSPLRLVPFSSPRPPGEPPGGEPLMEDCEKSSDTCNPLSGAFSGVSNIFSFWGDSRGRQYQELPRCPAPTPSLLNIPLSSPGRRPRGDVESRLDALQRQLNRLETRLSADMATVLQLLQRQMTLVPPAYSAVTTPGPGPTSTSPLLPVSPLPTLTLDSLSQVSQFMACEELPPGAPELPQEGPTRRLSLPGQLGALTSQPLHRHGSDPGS

Compared with CCc1ccc2c(c1)cc(CN(C(=S)Nc1ccccc1)C1CC1)c1nnnn12, CCc1cccc(CC)c1NC(=S)NCc1nc2ccccc2[nH]1 is higher in “hERG current change (%, negative = inhibition) at 1uM” value: -1.57% for the first, 9.51% for the second.

Going from CCCCCn1c(CN2CCN(C(=O)OCC)CC2)nc2c1c(=O)[nH]c(=O)n2C to CCN(CC)CCNC(=O)Cn1c(C)cc2ccccc2c1=O, the “hERG current change (%, negative = inhibition) at 1uM” value rises from -39% to -4.85%.

Compared with Nc1nc(NC(=O)c2ccco2)nn1-c1ccccc1, O=C(CSc1cccc2cccnc12)NCc1ccco1 is lower in “hERG current change (%, negative = inhibition) at 1uM” value: 9.23% for the first, 6.72% for the second.

First: N/C(Cc1ccc(Cl)cc1Cl)=N\OC(=O)c1ccccc1
Second: COc1ccccc1NC(=S)NC(=O)Cc1ccc(Cl)cc1
The “hERG current change (%, negative = inhibition) at 1uM” value of the first is lower: 7.82% for the first, 14.2% for the second.

Going from Cn1c(CNc2ccc(Cl)cc2)nc2ccccc21 to COc1ccc(C2CC(c3ccc(Cl)cc3)=NN2C(C)=O)cc1 (stereo not drawn), the “hERG current change (%, negative = inhibition) at 1uM” value rises from 4.16% to 14%.

Compared with CN(C)CCCNC(=O)/C(=C/c1ccc(-c2ccc([N+](=O)[O-])cc2)o1)NC(=O)c1ccccc1, Cc1ccccc1C(=O)NCCCCc1ccccc1 is higher in “hERG current change (%, negative = inhibition) at 1uM” value: -52.5% for the first, 8.46% for the second.

Compared with Oc1cccc(C(Nc2nccs2)c2ccc3cccnc3c2O)c1 (stereo not drawn), CCOc1ccc(C2=NNC(c3cccs3)=Nc3ccc(OC)cc32)cc1OCC is higher in “hERG current change (%, negative = inhibition) at 1uM” value: -2.25% for the first, 0.309% for the second.

Going from Cc1cc(C)cc(N(C(C)C(=O)N2CCCCC2)S(C)(=O)=O)c1 (stereo not drawn) to Clc1ccc(OCCN2CCCCC2)c(Cl)c1.O=C(O)C(=O)O, the “hERG current change (%, negative = inhibition) at 1uM” value falls from 9.28% to -2.54%.

First: O=C(CC1SC(N2CCCCC2)=NC1=O)Nc1ccc(C(=O)Nc2ccccc2)cc1 (stereo not drawn)
Second: CC(=O)N1CCN(c2ccc(NC(=O)c3ccc(Cl)cc3)cc2)CC1
The “hERG current change (%, negative = inhibition) at 1uM” value of the first is lower: 4.44% for the first, 5.94% for the second.

Compared with CC(=O)Nc1ccc(NC(=O)CN(c2cc(Cl)ccc2Cl)S(C)(=O)=O)cc1, CC(=O)Nc1ccc(NC(=O)C(C)OC(=O)CSCc2cccc(Cl)c2)cc1 (stereo not drawn) is lower in “hERG current change (%, negative = inhibition) at 1uM” value: 13.3% for the first, 9.94% for the second.

First: O=C(NCc1ccc(Cl)cc1)N1CCN(Cc2ccccc2)CC1
Second: CS(=O)(=O)N1CCN(C(=O)c2cc(-c3ccccc3)nc3ccccc23)CC1
The “hERG current change (%, negative = inhibition) at 1uM” value of the first is higher: 5.53% for the first, -5.59% for the second.

First: Cc1ccc(C)c2[nH]c(=O)c(C(c3nnnn3Cc3ccco3)N3CCc4ccccc4C3)cc12 (stereo not drawn)
Second: CCCOc1ccc(C2C(C(=O)c3ccc(C)o3)=C(O)C(=O)N2Cc2ccco2)cc1OCC (stereo not drawn)
The “hERG current change (%, negative = inhibition) at 1uM” value of the first is lower: 5.56% for the first, 14.9% for the second.

Going from COc1ccc(OCC(=O)NS(=O)(=O)c2ccccc2)cc1 to COc1ccccc1CNC(=O)COC(=O)CNS(=O)(=O)c1ccc(C)cc1, the “hERG current change (%, negative = inhibition) at 1uM” value falls from 12.1% to -13.3%.

Going from Cc1ccc(Cn2ccsc2=NC(=O)COC(=O)c2ccc(O)cc2O)cc1 to COc1cc(C2C(C(=O)C(C)(C)C)=C(O)C(=O)N2Cc2ccccc2)ccc1O (stereo not drawn), the “hERG current change (%, negative = inhibition) at 1uM” value falls from 11.2% to 2.95%.

First: O=C(NC1CCCCC1)C(=S)N1CCCC1
Second: O=C(COC(=O)CNC(=O)c1ccc(Cl)cc1Cl)NC(=O)NC1CCCCC1
The “hERG current change (%, negative = inhibition) at 1uM” value of the first is higher: 12.5% for the first, 1.6% for the second.

First: CCOc1ccc(OCCC(=O)N(CC(=O)Nc2ccccc2C(F)(F)F)Cc2ccco2)cc1
Second: CCOCCCNC(=O)C(NC(=O)c1ccc2c(c1)OCO2)c1ccc(OC)cc1 (stereo not drawn)
The “hERG current change (%, negative = inhibition) at 1uM” value of the first is higher: 10.2% for the first, 8.3% for the second.

Going from CC(C)(C)NS(=O)(=O)c1ccc2nc(NC(=O)Cc3cccs3)sc2c1 to O=C(CCNS(=O)(=O)c1ccc(Br)cc1)Nc1cccc(F)c1, the “hERG current change (%, negative = inhibition) at 1uM” value rises from 0.0479% to 6.1%.

First: C=CCNC(=O)C1CC2Cn3c(nc4cc5ccccc5cc43)C2N1C (stereo not drawn)
Second: Cc1cc(CNC(=O)C(C)n2cc([N+](=O)[O-])cn2)c2ccccc2n1 (stereo not drawn)
The “hERG current change (%, negative = inhibition) at 1uM” value of the first is higher: 8.26% for the first, 1.64% for the second.

Compared with CCN(CC)CCNC(=O)c1ccc(NC(=O)C2CC(=O)N(CCc3ccc(OC)c(OC)c3)C2)cc1 (stereo not drawn), COc1ccc(CCC(=O)Nc2ccc3c(c2)OCO3)cc1OC is lower in “hERG current change (%, negative = inhibition) at 1uM” value: 20.6% for the first, 16.9% for the second.

Going from Cc1ccc(S(=O)(=O)c2c(N)n(CCC(C)C)c3nc4ccccc4nc23)cc1 to COc1cccc2sc(N(CCCN(C)C)C(=O)CCS(=O)(=O)c3ccccc3)nc12, the “hERG current change (%, negative = inhibition) at 1uM” value falls from 2.31% to -1.26%.

Going from Clc1ccc2[nH]c3c(c2c1)CNCC3 to CCNS(=O)(=O)c1ccc2c(c1)NCC2, the “hERG current change (%, negative = inhibition) at 1uM” value rises from 10.8% to 20.8%.

Going from CC(=NC(C)C)C1=C(O)C(C)OC1=O (stereo not drawn) to COC(C[C@H]1O[C@@H]1[C@H](O)[C@H](C)OCc1ccccc1)OC, the “hERG current change (%, negative = inhibition) at 1uM” value rises from 10.9% to 12.3%.

First: Cc1c(Cl)cccc1NC(=S)N(Cc1cccnc1)Cc1ccccc1Cl
Second: CCc1ccccc1NC(=S)NCC1CCN(c2ccc(OC)cc2)C1 (stereo not drawn)
The “hERG current change (%, negative = inhibition) at 1uM” value of the first is higher: 10.3% for the first, 0.763% for the second.

Compared with O=C(Cn1cc(C(=O)C2CC2)c2ccccc21)NCC1CCCO1 (stereo not drawn), O=C(CS(=O)(=O)c1cn(Cc2cccc(F)c2)c2ccccc12)N1CCOCC1 is lower in “hERG current change (%, negative = inhibition) at 1uM” value: 0.573% for the first, 0.41% for the second.

Compared with COc1cc(C(=O)N(Cc2cc3ccccc3[nH]c2=O)CC2CCCO2)cc(OC)c1OC (stereo not drawn), COc1ccc(OC)c(N(CC(=O)NC2CC3CCC2C3)S(=O)(=O)c2ccccc2)c1 (stereo not drawn) is lower in “hERG current change (%, negative = inhibition) at 1uM” value: 4.8% for the first, -7.11% for the second.

First: O=S(=O)(O)c1cnccc1Nc1cccc(C(F)(F)F)c1
Second: O=C(O)CN1C(=O)C(=O)N(Cc2ccc(C(F)(F)F)cc2)C1=O
The “hERG current change (%, negative = inhibition) at 1uM” value of the first is lower: 11.1% for the first, 20.9% for the second.

Going from C/C(=N/NC(=O)CCCOc1ccc(Cl)cc1Cl)c1ccc(C)o1 to COc1ccc(NC(=O)CCOc2ccc(C)cc2)cc1S(=O)(=O)N1CCOCC1, the “hERG current change (%, negative = inhibition) at 1uM” value falls from 12.5% to 0.907%.

First: Cc1ccn(CCC(=O)NC2CCCc3c2cnn3-c2cccc(C)c2C)n1 (stereo not drawn)
Second: Cc1cc(NC(=O)CSc2nc3c(C)cccc3cc2C#N)no1
The “hERG current change (%, negative = inhibition) at 1uM” value of the first is higher: 12.9% for the first, 5.82% for the second.

First: C/C(=N\N1CCN(C2c3ccccc3-c3ccccc32)CC1)c1ccncc1
Second: c1ccc2c(-c3ccncc3)c[nH]c2c1
The “hERG current change (%, negative = inhibition) at 1uM” value of the first is lower: 10.3% for the first, 12% for the second.

Going from Cc1c(NC(=O)C2CC(c3cccc(Br)c3)=NO2)c(=O)n(-c2ccccc2)n1C (stereo not drawn) to COc1ccc(NC(=O)c2cc(-c3cccc(OC)c3)on2)cc1, the “hERG current change (%, negative = inhibition) at 1uM” value falls from 13.6% to 11.2%.

Compared with COc1ccc(CNC(=O)CN2C(=O)CCSc3ccc(S(=O)(=O)N4CCCC4)cc32)cc1, COc1ccc(-n2c(Cc3cccn3C)nnc2SCC(=O)NCc2ccc(F)cc2)cc1 is lower in “hERG current change (%, negative = inhibition) at 1uM” value: 5.07% for the first, -3.72% for the second.

First: CC1(C)N=C(N)N=C(N)N1c1ccc(C(=O)O)cc1.Cl
Second: COc1ccc(-n2c(SC)nc(O)cc2=O)cc1
The “hERG current change (%, negative = inhibition) at 1uM” value of the first is lower: -1.62% for the first, 0.301% for the second.

Compared with O=C(CCCN1C(=O)c2ccccc2C1=O)Nc1nncs1, O=C(CCCN=C1NS(=O)(=O)c2ccccc21)OCc1ccc(F)cc1 is higher in “hERG current change (%, negative = inhibition) at 1uM” value: 14.9% for the first, 15.4% for the second.

Going from COc1ccc(Br)cc1/C=N/NC(=O)c1ccc2nc[nH]c2c1 to CC(=O)c1cccc(NC(=O)Nc2ccc3c(c2)N(C)C(=O)CS3)c1, the “hERG current change (%, negative = inhibition) at 1uM” value falls from 18.8% to -6.26%.

Compared with Cn1cccc1-c1nc2ccc([N+](=O)[O-])cc2[nH]1, COc1ccc(N2C(=O)C(Cl)=C(Oc3cccc(OC)c3)C2=O)cc1 is lower in “hERG current change (%, negative = inhibition) at 1uM” value: 18.2% for the first, 14.1% for the second.

First: CCOC(=O)C1=C(C)NC(=O)CC1c1cc2c(cc1[N+](=O)[O-])OCO2 (stereo not drawn)
Second: COc1cc(C(=O)OCC(=O)N2CCOCC2)c([N+](=O)[O-])cc1OC
The “hERG current change (%, negative = inhibition) at 1uM” value of the first is higher: 14.6% for the first, 7.73% for the second.

First: Cc1ccccc1NC(=S)NN1CCN(C)CC1
Second: Cc1nn(C)c(Cl)c1NC(=O)OCc1ccccc1
The “hERG current change (%, negative = inhibition) at 1uM” value of the first is higher: 0.714% for the first, -14% for the second.

Compared with COc1ccc(/C=C/c2nnc(NC(=O)C(C)C)s2)cc1, COc1ccc(OCCC(=O)OCC(=O)NC(=O)NC(C)(C)C)cc1 is lower in “hERG current change (%, negative = inhibition) at 1uM” value: 11.6% for the first, 7.87% for the second.

First: Cc1cccc(CN2C(=O)N/C(=C/c3cc(C)n(-c4cc(C)ccn4)c3C)C2=O)c1
Second: O=C(O)C(=O)O.O=C1CN(C(=O)CNCc2cccc(Cl)c2)c2ccccc2N1
The “hERG current change (%, negative = inhibition) at 1uM” value of the first is higher: 17.6% for the first, 11.1% for the second.

Compared with COCC(C)N1CCC(n2nccc2NC(=O)CCCc2ccccc2)CC1 (stereo not drawn), Cc1ccc(C(=O)N(C)CC(=O)Nc2ccc(N3CCOCC3)cc2)s1 is lower in “hERG current change (%, negative = inhibition) at 1uM” value: 9.57% for the first, -3.61% for the second.

Going from CN(CC(=O)NCc1ccc2c(c1)OCO2)CC(=O)Nc1ccc(F)c(F)c1F to COC(=O)C1=C(c2ccc(OC(F)(F)F)cc2)C[C@@H]2CC[C@H]1N2C(=O)NCC1CC1, the “hERG current change (%, negative = inhibition) at 1uM” value falls from 1.88% to -7.23%.

Compared with O=C(c1cccc(Cl)c1)N(Cc1ccco1)C1CCS(=O)(=O)C1 (stereo not drawn), CC(C)(C)NC(=O)NC(=O)COC(=O)c1ccc2c(c1)S(=O)(=O)N=C1CCCCCN12 is higher in “hERG current change (%, negative = inhibition) at 1uM” value: 10.5% for the first, 13.5% for the second.

Going from Cc1nn(C)c(C(=O)N/N=C/c2cccnc2)c1Cl to COc1ccc(C(=O)N2CCOCC2)cc1S(=O)(=O)N1CCC(C)CC1, the “hERG current change (%, negative = inhibition) at 1uM” value falls from 19% to -2.57%.

In the case of C[C@]12CC[C@@H](O)C[C@@H]1CC[C@@H]1[C@@H]2CC[C@]2(C)[C@@H](O)CC[C@@H]12, the “hERG current change (%, negative = inhibition) at 1uM” value is reported as 16.4%.
